Screen size: about 360,000 compounds; about 16,000 (4.4%) were called active. Inconclusive means that the source gave no clear call. Such entries were picked first, then a sample of the others. Calls come from the whole dose curve; as a rule, active = well fitted inhibition curve with a large enough effect; inconclusive = small, poorly fitted or top-dose-only effect; inactive = no such curve, though single readings can be large or run the other way. Potencies beside an inconclusive call are fits to weak or partial responses and may not hold up.
What follows are molecules tested against Bromodomain adjacent to zinc finger domain protein 2B (Homo sapiens) (UniProt Q9UIF8) (assay: qHTS Assay for Inhibitors of BAZ2B). Settings: AlphaScreen BAZ2B-H3K14Ac peptide displacement; activity change, negative = inhibition: at 114 µM (top of the series) unless noted.
In short: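 AlphaScreen displacement: compounds (up to 110uM) incubated 30 min at room temperature with a preformed 50 nM BAZ2B/50 nM biotinylated H3K14Ac peptide complex in PBS pH 7.4 with Tween-20. Donor and acceptor beads at 10 ug/mL final added, 20 min light-protected before reading.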
% is set by controls: 0 for no effect and ±100 for the full control effect; potency is the fitted concentration of half-maximal effect; tags give direction and shape of the fitted curve.
Note: nearly all actives have a fitted effect of over 60% in size.

Chain of UniProt Q9UIF8 (Q9UIF8 whole entry, looked up, the tested form may be a part): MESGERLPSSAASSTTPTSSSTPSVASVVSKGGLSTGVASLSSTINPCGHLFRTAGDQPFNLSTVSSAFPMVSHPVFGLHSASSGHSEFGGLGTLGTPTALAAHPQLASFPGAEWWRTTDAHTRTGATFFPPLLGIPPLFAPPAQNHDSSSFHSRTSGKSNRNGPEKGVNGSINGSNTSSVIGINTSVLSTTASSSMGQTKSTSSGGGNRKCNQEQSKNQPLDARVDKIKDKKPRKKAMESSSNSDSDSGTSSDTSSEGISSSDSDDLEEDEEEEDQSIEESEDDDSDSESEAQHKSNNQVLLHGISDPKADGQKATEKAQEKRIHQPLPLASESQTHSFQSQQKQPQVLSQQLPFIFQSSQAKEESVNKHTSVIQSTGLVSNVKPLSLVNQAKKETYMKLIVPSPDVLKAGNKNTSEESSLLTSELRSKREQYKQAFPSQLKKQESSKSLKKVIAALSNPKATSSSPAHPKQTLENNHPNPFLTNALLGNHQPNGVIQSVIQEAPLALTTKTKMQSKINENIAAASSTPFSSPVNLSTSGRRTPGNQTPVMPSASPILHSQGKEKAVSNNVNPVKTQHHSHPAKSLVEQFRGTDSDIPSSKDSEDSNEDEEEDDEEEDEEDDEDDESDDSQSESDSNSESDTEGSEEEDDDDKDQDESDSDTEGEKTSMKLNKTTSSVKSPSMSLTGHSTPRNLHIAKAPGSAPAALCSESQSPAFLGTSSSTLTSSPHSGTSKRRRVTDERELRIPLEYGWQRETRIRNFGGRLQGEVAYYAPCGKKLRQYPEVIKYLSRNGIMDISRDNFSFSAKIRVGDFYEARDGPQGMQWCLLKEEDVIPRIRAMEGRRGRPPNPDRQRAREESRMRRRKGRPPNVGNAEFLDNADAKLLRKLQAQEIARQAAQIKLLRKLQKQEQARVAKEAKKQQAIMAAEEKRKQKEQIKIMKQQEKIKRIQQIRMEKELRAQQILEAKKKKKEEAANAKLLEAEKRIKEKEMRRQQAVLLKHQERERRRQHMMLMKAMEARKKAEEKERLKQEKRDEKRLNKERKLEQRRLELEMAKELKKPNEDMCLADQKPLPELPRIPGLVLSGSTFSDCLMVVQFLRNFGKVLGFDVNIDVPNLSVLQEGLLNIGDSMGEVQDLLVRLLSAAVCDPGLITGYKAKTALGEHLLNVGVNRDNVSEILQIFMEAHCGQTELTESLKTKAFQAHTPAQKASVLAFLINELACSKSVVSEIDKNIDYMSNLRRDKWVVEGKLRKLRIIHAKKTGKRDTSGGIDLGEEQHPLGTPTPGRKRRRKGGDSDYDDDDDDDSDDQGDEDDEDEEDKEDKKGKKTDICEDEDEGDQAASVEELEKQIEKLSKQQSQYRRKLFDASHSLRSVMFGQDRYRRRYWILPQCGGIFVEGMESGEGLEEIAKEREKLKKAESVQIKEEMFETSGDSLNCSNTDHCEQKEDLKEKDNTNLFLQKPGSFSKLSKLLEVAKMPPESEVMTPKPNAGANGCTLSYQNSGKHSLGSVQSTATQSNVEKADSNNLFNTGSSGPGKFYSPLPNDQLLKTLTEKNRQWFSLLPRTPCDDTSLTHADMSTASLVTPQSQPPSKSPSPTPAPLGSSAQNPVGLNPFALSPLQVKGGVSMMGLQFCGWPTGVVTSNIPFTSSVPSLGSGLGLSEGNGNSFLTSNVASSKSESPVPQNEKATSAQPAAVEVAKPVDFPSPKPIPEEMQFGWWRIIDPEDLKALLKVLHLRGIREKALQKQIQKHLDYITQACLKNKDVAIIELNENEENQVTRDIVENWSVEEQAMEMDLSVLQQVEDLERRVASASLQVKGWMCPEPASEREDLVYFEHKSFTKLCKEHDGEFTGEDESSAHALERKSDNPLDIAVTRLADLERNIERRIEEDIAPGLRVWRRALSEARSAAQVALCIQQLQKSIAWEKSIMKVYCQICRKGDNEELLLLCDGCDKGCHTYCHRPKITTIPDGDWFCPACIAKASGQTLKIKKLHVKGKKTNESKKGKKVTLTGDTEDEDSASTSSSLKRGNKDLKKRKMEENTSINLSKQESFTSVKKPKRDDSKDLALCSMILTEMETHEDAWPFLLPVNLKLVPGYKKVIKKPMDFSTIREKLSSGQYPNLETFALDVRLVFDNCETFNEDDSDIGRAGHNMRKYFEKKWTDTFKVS

| SMILES | Potency | activity change, negative = inhibition |
| --- | --- | --- |
| Cc1sc2ncnc(SCC(=O)NNC(=O)c3ccco3)c2c1C | inconclusive: 89.1 µM [inhibitor, single point] | – |
| Cc1ccc(Cn2c(C)c3cnn(CC(=O)N4CCN(c5ccc(F)cc5)CC4)c(=O)c3c2C)cc1 | inconclusive: 31.6 µM [inhibitor, full curve] | – |
| Cc1ccc(/C=N/c2sc3c(c2C#N)CCC3)o1 | inconclusive: 20 µM [inhibitor, single point] | – |
| Cn1c(SCC(=O)C(C)(C)C)nnc1-c1ccccn1 | inconclusive: 79.4 µM [inhibitor, single point] | – |
| COc1ccccc1CNC(=O)/C=C/c1ccc(Br)o1 | inconclusive: 89.1 µM [inhibitor, single point] | – |
| CC1CCN(C2CCN(S(=O)(=O)c3ccc(F)cc3)CC2)CC1 | inconclusive: 39.8 µM [inhibitor, single point] | – |
| Cc1oc2ncn(CC(C)C)c(=O)c2c1C(=O)N(Cc1ccccc1)C(C)C | – | inactive: 7.63% [at 57.1 µM] |
| CC1Cn2cc(C(=O)Nc3ccccc3C(F)(F)F)c(=O)c3c(Cl)ccc(c32)O1 (configuration not stated) | – | inactive: 5.49% |
| COc1cc(S(=O)(=O)n2cnc(C)c2)ccc1Br | inconclusive: 100 µM [inhibitor, partial curve] | – |
| O=C(NC(=S)Nn1cnc2c(cnn2-c2ccccc2)c1=O)c1ccc(Oc2ccccc2)cc1 | – | inactive: 5.1% |
| O=C(CNC(=O)c1ccco1)Nc1ccc(N2CCCCCC2)cc1 | inconclusive: 39.8 µM [inhibitor, partial curve] | – |
| COC(=O)c1[nH]c2ccc(Cl)cc2c1NC(=O)CN1CCc2cc(OC)c(OC)cc2C1 | inconclusive: 89.1 µM [inhibitor, single point] | – |
| O=C(NCC(c1ccc2c(c1)OCO2)N1CCN(c2ccccc2)CC1)c1ccccc1 (configuration not stated) | inconclusive: 39.8 µM [inhibitor, partial curve] | – |
| Cc1ccc(S(=O)(=O)N2CCn3cccc3C2C)cc1 (configuration not stated) | inconclusive: 89.1 µM [inhibitor, single point] | – |
| COc1ccc(CNc2ccc3c(c2)CCC3)cc1Br | – | inactive: -26.3% |
| C=C(C)CN=C1NN=C(c2cc(C)n(-c3ccc(C)cc3)c2C)CS1 | – | inactive: -38.6% |
| O=C(CSc1nnc(CNC(=O)c2cccs2)o1)Nc1ccc(Br)cc1 | – | inactive: -11.1% |
| COc1ccc(-n2c(Cc3cccn3C)nnc2SCC(=O)Nc2ccc(C)c(Cl)c2)cc1 | inconclusive: 35.5 µM [inhibitor, full curve] | – |
| CCN1CCN(C(=O)NC2CCCCC2)CC1 | inconclusive: 79.4 µM [inhibitor, single point] | – |
| COc1ccc(NC(=S)Nn2cnnc2)c(OC)c1 | inconclusive: 56.2 µM [inhibitor, partial curve] | – |
| O=S(=O)(Nc1ccc(N2CCCCC2)cc1)c1ccc(F)cc1 | active: 79.4 µM | – |
| CCOC(=O)c1ccc(/C=C2/C=C(c3ccccc3)N(c3ccc(Cl)c(C(=O)O)c3)C2=O)cc1 | active: 50.1 µM | – |
| Cc1ccc(N=c2sc(C)c(C)n2C)cc1 | inconclusive: 89.1 µM [inhibitor, single point] | – |
| CC1CCN(CC(=O)Nc2ccc(Br)cc2[N+](=O)[O-])CC1 | inconclusive: 17.8 µM [inhibitor, full curve] | – |

| SMILES | Potency | activity change, negative = inhibition |
| --- | --- | --- |
| COc1ccc(Oc2ccc(/C=C/C(=O)c3ccc(O)cc3)cc2[N+](=O)[O-])cc1 | inconclusive: 35.5 µM [inhibitor, full curve] | – |
| COC(=O)Cn1cc(/C=C/[N+](=O)[O-])c2ccccc21 | inconclusive: 79.4 µM [inhibitor, partial curve] | – |
| O=C(NCc1ccccc1Cl)C(=O)NCC(c1cccs1)S(=O)(=O)c1ccccc1 (configuration not stated) | – | inactive: -5.51% |
| O=c1cc(CN2CCN(C/C=C/c3ccccc3)CC2)c2cc(O)ccc2o1 | inconclusive: 8.91 µM [inhibitor, full curve, poor fit] | – |
| Cc1[nH]n(-c2ccccc2)c(=O)c1/C=N/N(C)c1ccccc1 | inconclusive: 35.5 µM [inhibitor, partial curve] | – |
| N#C/C(=C\c1ccc(-c2ccc(Cl)c(C(=O)O)c2)o1)c1nc2ccccc2[nH]1 | active: 50.1 µM | – |
| COc1ccc(N2CCN(C(=O)CCNC(=O)c3ccc(C(C)(C)C)cc3)CC2)cc1 | inconclusive: 56.2 µM [inhibitor, partial curve] | – |
| OC(CNc1ccccc1)COc1ccc(OCC(O)CNc2ccccc2)cc1 (configuration not stated) | active: 50.1 µM | – |
| CC1=NOC(=O)/C1=C/c1ccc2c(c1)OCO2 | inconclusive: 89.1 µM [inhibitor, single point] | – |
| CCOc1ccc(-c2c(C(=O)N/N=C/C3CC=CCC3)nnn2-c2nonc2N)cc1 (configuration not stated) | active: 79.4 µM | – |
| CCOc1ccccc1N1CC(c2nc3ccccc3n2CCOc2ccccc2OC)CC1=O (configuration not stated) | – | inactive: -15.1% |
| CCOC(=O)c1c(NC(=S)Nc2ccc(Cl)cc2)sc2c1CCN(C)C2 | inconclusive: 89.1 µM [inhibitor, single point] | – |
| CCCCC/C=C\C[C@H](O)/C=C/c1cccc(C[C@H](O)CCCCO)n1 | inconclusive: 89.1 µM [inhibitor, single point] | – |
| Cc1cc(C)c2nc(NNC(=O)c3ccc(S(=O)(=O)N4CCc5ccccc5C4)cc3)sc2c1 | inconclusive: 2.24 µM [inhibitor, full curve] | – |
| CN(CC(=O)Nc1ccc(F)cc1)C(=O)c1cc(-c2ccco2)nc2ccccc12 | active: 39.8 µM | – |
| CC(C)N1CCC2(CC1)N=C(c1ccc3c(c1)OCO3)CC(c1cc(Cl)ccc1O)N2 (configuration not stated) | inconclusive: 89.1 µM [inhibitor, single point] | – |
| Cc1ccccc1-c1noc(-c2cc(C(C)C)[nH]n2)n1 | – | inactive: 11.2% |
| CN(C)S(=O)(=O)c1ccc(NC(=O)Cc2ccc(S(=O)(=O)N3CCOCC3)s2)cc1 | inconclusive: 50.1 µM [inhibitor, partial curve] | – |
| Cc1cc2ccccn2c1C(=O)c1ccccc1Br | – | inactive: -17.9% |
| Cc1csc(N/N=C/c2ccc(O)c([N+](=O)[O-])c2)n1 | active: 4.47 µM | – |
| Cc1ccc(COc2cccc3cc(-c4noc(-c5ccc(C)cc5)n4)c(=O)oc23)cc1 | – | inactive: -0.535% |
| Cc1ccc(C(=O)c2oc3ccccc3c2NC(=O)COc2ccc(C(C)(C)C)cc2)cc1 | – | inactive: 1.28% |
| Cc1ccc(NC(=O)Cn2cnc3c(oc4ccccc43)c2=O)cc1 | – | inactive: -29.2% |
| Cc1ccc(SCCC(=O)NCCSCc2ccco2)cc1 | inconclusive: 79.4 µM [inhibitor, single point] | – |

| SMILES | Potency | activity change, negative = inhibition |
| --- | --- | --- |
| COc1ccc(OC)c(NC(=O)Nc2cccnc2)c1 | inconclusive: 70.8 µM [inhibitor, single point] | – |
| CCc1ccc(/C=C2\Oc3cc(OS(C)(=O)=O)ccc3C2=O)cc1 | inconclusive: 39.8 µM [inhibitor, full curve, poor fit] | – |
| Cc1cccc(-n2ncc(C(=O)Nc3ccc4c(c3)OCO4)c2C2CCN(C(=O)OC(C)(C)C)CC2)c1 | inconclusive: 31.6 µM [inhibitor, single point] | – |
| CCN(Cc1ccc(OC)c(F)c1)C(=O)c1oc2ccccc2c1COC | – | inactive: 9.68% |
| CN(C)c1ccc(NC(=O)CSC2=Nc3ccccc3C3=NC(CC(=O)NCc4ccc5c(c4)OCO5)C(=O)N23)cc1 (configuration not stated) | inconclusive: 39.8 µM [inhibitor, partial curve] | – |
| Oc1ccc(NCc2ccccc2OCc2ccccc2Cl)cc1 | active: 25.1 µM | – |
| COc1ccc(CN2C(=O)c3cccnc3C2=O)cc1S(=O)(=O)N1CC(C)CC(C)C1 (configuration not stated) | inconclusive: 56.2 µM [inhibitor, partial curve] | – |
| O=C(O)CCCCC1CCSS1 (configuration not stated) | active: 1 µM | – |
| COc1cccc(/C=N/NC(=O)c2nnn(-c3nonc3N)c2C(C)C)c1 | – | inactive: -4.74% |
| Oc1ccc(CNc2ccccc2O)cc1 | active: 44.7 µM | – |
| Cc1ccccc1-c1ccc(=O)n(CC(=O)Nc2ccc(N3CCOCC3)cc2)n1 | inconclusive: 70.8 µM [inhibitor, single point] | – |
| CCCn1[nH]cc(SC)c(=O)c1=O | inconclusive: 89.1 µM [inhibitor, single point] | – |
| Cc1c(NC(=O)C2CC(c3ccc(F)cc3)=NO2)c(=O)n(-c2ccccc2)n1C (configuration not stated) | inconclusive: 89.1 µM [inhibitor, single point] | – |
| CCc1cccc(CC)c1NC(=O)C1CSC2(C)CCC(=O)N12 (configuration not stated) | – | inactive: -5.04% |
| COc1ccc(C(=O)CCC(=O)Nc2cccnc2)cc1OC | – | inactive: 20% |
| CC(NC(=O)c1ccco1)C(c1cccs1)N1CCN(c2ccccc2)CC1 (configuration not stated) | inconclusive: 89.1 µM [inhibitor, single point] | – |
| CCOc1ccc(CCNC(=O)Cn2nc(CC)n3c(cc4c(OC)cccc43)c2=O)cc1OCC | – | inactive: 28.7% |
| CC1CC(C)CN(c2ccc(-n3cnnn3)cc2[N+](=O)[O-])C1 (configuration not stated) | inconclusive: 50.1 µM [inhibitor, partial curve] | – |
| CCS(=O)(=O)c1ccc(O)c(NC(=O)COc2ccc(Br)cc2)c1 | – | inactive: -21% |
| Cc1c(C(=O)O)sc2nc(/C=C/c3ccccc3OC(F)F)[nH]c(=O)c12 | active: 70.8 µM | – |
| CCOC(=O)COc1ccc(/C=C2/SC(=Nc3ccccc3)N(Cc3cccnc3)C2=O)cc1OC | inconclusive: 44.7 µM [inhibitor, partial curve] | – |
| COc1ccc(C(Nc2ccccn2)c2c(NC(=O)c3ccco3)sc(C)c2C)cc1 (configuration not stated) | inconclusive: 50.1 µM [inhibitor, partial curve] | – |
| Cc1cc(C)cc(NC(=O)CSc2nnc(CNC(=O)c3c(F)cccc3Cl)o2)c1 | – | inactive: 35.8% |
| CC(=O)C1=C(O)C(=O)N(c2ccc(Br)cn2)C1c1ccc(Br)cc1 (configuration not stated) | inconclusive: 79.4 µM [inhibitor, single point] | – |
